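Cultured in 96-well plates, cells were exposed to test compound for 48 hours across five concentrations. GI50 is the concentration that inhibits growth by half.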 For part of its entries the source gives two or more results. Only these are listed. An entry can have further records. For part of these data: A record mostly stands for its own series of concentrations, not given here; some values may only mark the edge of a range. A tag in brackets gives the origin of a value. A, B and so on number the origins entry by entry. For part of these data: Values that stand side by side repeat one measurement in other runs, samples, wells, individuals or studies.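 The concentration for full growth arrest is given as TGI.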
Tests used:
Experiment in all cases: NCI tumour cell line growth inhibition, 48 h
COLO 205 colon = system: COLO 205 colon
HOP-92 NSCLC = system: HOP-92 NSCLC
SF-539 CNS = system: SF-539 CNS
ACHN renal = system: ACHN renal
BT-549 breast = system: BT-549 breast
CAKI-1 renal = system: CAKI-1 renal
EKVX NSCLC = system: EKVX NSCLC
HL-60(TB) leukemia = system: HL-60(TB) leukemia
HOP-62 NSCLC = system: HOP-62 NSCLC
HT29 colon = system: HT29 colon
M14 melanoma = system: M14 melanoma
MALME-3M melanoma = system: MALME-3M melanoma
MDA-MB-435 = system: MDA-MB-435
NCI-H23 lung = system: NCI-H23 lung
OVCAR-4 ovarian = system: OVCAR-4 ovarian
RPMI-8226 leukemia = system: RPMI-8226 leukemia
SF-268 CNS = system: SF-268 CNS
SK-MEL-28 melanoma = system: SK-MEL-28 melanoma
SNB-19 CNS = system: SNB-19 CNS
SNB-75 CNS = system: SNB-75 CNS
786-0 renal = system: 786-0 renal
A549 NSCLC = system: A549 NSCLC
HCC-2998 colon = system: HCC-2998 colon
HCT-116 colon = system: HCT-116 colon
HCT-15 colon = system: HCT-15 colon
KM12 colon = system: KM12 colon
LOX IMVI melanoma = system: LOX IMVI melanoma
MOLT-4 leukemia = system: MOLT-4 leukemia
NCI-H460 lung = system: NCI-H460 lung
NCI-H522 lung = system: NCI-H522 lung
OVCAR-3 ovarian = system: OVCAR-3 ovarian
OVCAR-5 ovarian = system: OVCAR-5 ovarian
OVCAR-8 ovarian = system: OVCAR-8 ovarian
SF-295 CNS = system: SF-295 CNS
SK-MEL-2 melanoma = system: SK-MEL-2 melanoma
SR leukemia = system: SR leukemia
U251 CNS = system: U251 CNS
UACC-257 melanoma = system: UACC-257 melanoma
UACC-62 melanoma = system: UACC-62 melanoma
XF 498 CNS = system: XF 498 CNS

Compound: Cc1cccc(/C=N/NC(=S)N2CCCC2)n1
- TGI (COLO 205 colon): 1.76 µM and > 100 µM
- TGI (HOP-92 NSCLC): 7.66 µM and > 100 µM
- TGI (SF-539 CNS): 5.06 µM and > 58.3 µM

Compound: CC[C@@]1(O)C(=O)OCc2c1cc1n(c2=O)Cc2cc3cc4c(cc3nc2-1)OCO4
- TGI (ACHN renal): 1.71 nM and 102 nM
- TGI (BT-549 breast): 755 nM and 19.6 nM
- TGI (CAKI-1 renal): 27.4 nM and 12.7 µM
- TGI (EKVX NSCLC): 2.46 µM and > 100 µM
- TGI (HL-60(TB) leukemia): 2.93 nM and > 100 µM
- TGI (HOP-62 NSCLC): 9.64 nM and 144 nM
- TGI (HT29 colon): 550 nM and > 51.2 µM
- TGI (M14 melanoma): 4.39 nM and 247 nM
- TGI (MALME-3M melanoma): 30.7 nM and 2.93 µM
- TGI (MDA-MB-435): 166 nM and > 100 µM
- TGI (NCI-H23 lung): 4.5 nM and 82.2 nM
- TGI (OVCAR-4 ovarian): 600 nM and > 100 µM
- GI50 (RPMI-8226 leukemia): 6.43 nM and 78.7 nM
- TGI (RPMI-8226 leukemia): 262 nM and > 100 µM
- TGI (SF-268 CNS): 29.6 nM and 407 nM
- TGI (SK-MEL-28 melanoma): 554 nM and > 100 µM
- TGI (SNB-19 CNS): 1.87 µM and 34.1 nM
- TGI (SNB-75 CNS): 8.93 nM and 10.8 µM

Compound: [Cl][Sn]([c]1ccccc1)([c]1ccccc1)[c]1ccccc1
- GI50 (786-0 renal): 170 nM [sample A, 1 test] and 17.6 nM, 10.8 nM [sample B, 1 test]
- TGI (786-0 renal): 360 nM [sample A, 1 test] and 37.6 nM, 23.3 nM [sample B, 1 test]
- GI50 (A549 NSCLC): 189 nM [sample A, 1 test] and 53.7 nM, 18 nM [sample B, 1 test]
- TGI (ACHN renal): 526 nM [sample A, 1 test] and 121 nM, 52.2 nM [sample B, 1 test]
- GI50 (CAKI-1 renal): 220 nM [sample A, 1 test] and 32 nM, 19.7 nM [sample B, 1 test]
- TGI (CAKI-1 renal): 849 nM [sample A, 1 test] and 151 nM, 80.5 nM [sample B, 1 test]
- GI50 (COLO 205 colon): 210 nM [sample A, 1 test] and 34.2 nM, 15.7 nM [sample B, 1 test]
- TGI (COLO 205 colon): 412 nM [sample A, 1 test] and 111 nM, 38.4 nM [sample B, 1 test]
- GI50 (EKVX NSCLC): 248 nM [sample A, 1 test] and 93.3 nM, 24.3 nM [sample B, 1 test]
- GI50 (HCC-2998 colon): 247 nM [sample A, 1 test] and 16.3 nM [sample B, 1 test]
- TGI (HCC-2998 colon): 492 nM [sample A, 1 test] and 35.1 nM [sample B, 1 test]
- GI50 (HCT-116 colon): 181 nM [sample A, 1 test] and 15.4 nM, < 10 nM [sample B, 1 test]
- TGI (HCT-116 colon): 369 nM [sample A, 1 test] and 32 nM, 18.3 nM [sample B, 1 test]
- GI50 (HCT-15 colon): 216 nM [sample A, 1 test] and 23.9 nM, 13 nM [sample B, 1 test]
- TGI (HCT-15 colon): 506 nM [sample A, 1 test] and 68.1 nM, 30.4 nM [sample B, 1 test]
- GI50 (HL-60(TB) leukemia): 362 nM [sample A, 1 test] and 29.4 nM [sample B, 1 test]
- TGI (HOP-92 NSCLC): 401 nM [sample A, 1 test] and 288 nM, 38.3 nM [sample B, 1 test]
- GI50 (HT29 colon): 209 nM [sample A, 1 test] and 38 nM, < 10 nM [sample B, 1 test]
- TGI (HT29 colon): 372 nM [sample A, 1 test] and 137 nM, 23.2 nM [sample B, 1 test]
- GI50 (KM12 colon): 189 nM [sample A, 1 test] and 17.9 nM, 10.7 nM [sample B, 1 test]
- TGI (KM12 colon): 363 nM [sample A, 1 test] and 40.7 nM, 28.4 nM [sample B, 1 test]
- GI50 (LOX IMVI melanoma): 175 nM [sample A, 1 test] and 32.6 nM, 13.6 nM [sample B, 1 test]
- TGI (LOX IMVI melanoma): 375 nM [sample A, 1 test] and 124 nM, 28.1 nM [sample B, 1 test]
- GI50 (M14 melanoma): 219 nM [sample A, 1 test] and 41.9 nM, 18.2 nM [sample B, 1 test]
- TGI (M14 melanoma): 530 nM [sample A, 1 test] and 147 nM, 41.6 nM [sample B, 1 test]
- GI50 (MALME-3M melanoma): 265 nM [sample A, 1 test] and 180 nM, 21.5 nM [sample B, 1 test]
- TGI (MALME-3M melanoma): 584 nM [sample A, 1 test] and 362 nM, 53.3 nM [sample B, 1 test]
- GI50 (MOLT-4 leukemia): 305 nM [sample A, 1 test] and < 10 nM [sample B, 1 test]
- TGI (MOLT-4 leukemia): 984 nM [sample A, 1 test] and 49.5 nM [sample B, 1 test]
- GI50 (NCI-H460 lung): 228 nM [sample A, 1 test] and 17.1 nM, 23 nM [sample B, 1 test]
- TGI (NCI-H460 lung): 551 nM [sample A, 1 test] and 33.3 nM, 50.4 nM [sample B, 1 test]
- GI50 (NCI-H522 lung): 201 nM [sample A, 1 test] and 15.2 nM [sample B, 1 test]
- TGI (NCI-H522 lung): 408 nM [sample A, 1 test] and 35.6 nM [sample B, 1 test]
- GI50 (OVCAR-3 ovarian): 182 nM [sample A, 1 test] and 19.7 nM, 13.1 nM [sample B, 1 test]
- GI50 (OVCAR-4 ovarian): 198 nM [sample A, 1 test] and 27.7 nM, 14.6 nM [sample B, 1 test]
- TGI (OVCAR-4 ovarian): 552 nM [sample A, 1 test] and 80.4 nM, 45.1 nM [sample B, 1 test]
- GI50 (OVCAR-5 ovarian): 186 nM [sample A, 1 test] and 137 nM, 12.3 nM [sample B, 1 test]
- GI50 (OVCAR-8 ovarian): 289 nM [sample A, 1 test] and 147 nM, 15.2 nM [sample B, 1 test]
- TGI (OVCAR-8 ovarian): 934 nM [sample A, 1 test] and 366 nM, 29.1 nM [sample B, 1 test]
- GI50 (RPMI-8226 leukemia): 271 nM [sample A, 1 test] and 37.8 nM, < 10 nM [sample B, 1 test]
- TGI (RPMI-8226 leukemia): 952 nM [sample A, 1 test] and 295 nM, 25.3 nM [sample B, 1 test]
- GI50 (SF-268 CNS): 247 nM [sample A, 1 test] and 34.3 nM, 22.2 nM [sample B, 1 test]
- TGI (SF-268 CNS): 713 nM [sample A, 1 test] and 110 nM, 61.7 nM [sample B, 1 test]
- GI50 (SF-295 CNS): 367 nM [sample A, 1 test] and 160 nM, 26.6 nM [sample B, 1 test]
- TGI (SF-295 CNS): 1.31 µM [sample A, 1 test] and 320 nM, 63.3 nM [sample B, 1 test]
- GI50 (SK-MEL-2 melanoma): 241 nM [sample A, 1 test] and 72 nM, 22.1 nM [sample B, 1 test]
- GI50 (SNB-75 CNS): 294 nM [sample A, 1 test] and 34.7 nM, 20.2 nM [sample B, 1 test]
- TGI (SNB-75 CNS): 1.63 µM [sample A, 1 test] and 178 nM, 108 nM [sample B, 1 test]
- GI50 (SR leukemia): 278 nM [sample A, 1 test] and 37.7 nM, 10.6 nM [sample B, 1 test]
- GI50 (U251 CNS): 183 nM [sample A, 1 test] and 15.5 nM [sample B, 1 test]
- TGI (U251 CNS): 355 nM [sample A, 1 test] and 33.4 nM [sample B, 1 test]
- GI50 (UACC-257 melanoma): 380 nM [sample A, 1 test] and 122 nM, 24.8 nM [sample B, 1 test]
- TGI (UACC-257 melanoma): 1.48 µM [sample A, 1 test] and 259 nM, 82.2 nM [sample B, 1 test]
- GI50 (UACC-62 melanoma): 226 nM [sample A, 1 test] and 106 nM, 15.9 nM [sample B, 1 test]
- TGI (UACC-62 melanoma): 597 nM [sample A, 1 test] and 239 nM, 46.5 nM [sample B, 1 test]
- GI50 (XF 498 CNS): 103 nM and < 10 nM
- TGI (XF 498 CNS): 224 nM and 17.9 nM

Source: PubChem BioAssay (NCI)
